According to the RNAGym collection of RNA variant scans (doi:10.1073/pnas.2313332121):
Variants at the background level are over-represented here.

B1: TPR 5TU (parent)
chain: GGAUCUUCUCGAUCUAACAAAAAAGACAAAUCUGCCACAAAGCUUGAGAGCAUCUUCGGAUGCAGAGGCGGCAGCCUUCGGUGGCGCGAUAGCGCCAACGUUCUCAACUAUGACACGCAAAACGCGUGCUCCGUUGAAUGGAGUUUAUCAUG

Variants of: B1
Assay: polymerase ribozyme fitness, log enrichment relative to wild type (log ratio); higher = more active; in vitro selection for triplet polymerase activity
How it was run: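 Fitness compares each genotype's enrichment to that of the wild type on a logarithmic scale, averaging replicates with inverse-variance weights. The logarithm is base 2. Enrichment came from Illumina sequencing of input and output libraries after one triplicate round of in vitro selection, which included frozen incubation at −7 °C, of PCR-built, transcribed mutant libraries of each subunit of a heterodimeric triplet polymerase ribozyme. Only genotypes with ≥10 input reads and ≥1 read per output were kept.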

| Variant | polymerase ribozyme fitness (log ratio) |
| --- | --- |
| C76G C96U C129G A147C | ≤ -4.2 |
| C76G C99U | ≤ -4.2 |
| C76G G81A | ≤ -4.2 |
| C76G G84U | ≤ -4.2 |
| C76G G84U U145C | ≤ -4.2 |
| C76G G86A | ≤ -4.2 |
| C76G G92U A121G G143U | ≤ -4.2 |
| C76G G143C | ≤ -4.2 |
| C76G U90A C108G C125A G140U A142C | ≤ -4.2 |
| C76G U102G | ≤ -4.2 |
| C76U A119G G126U U139G | -0.649 |
| C76U A122G | -0.0921 |
| C76U A150U | 0.843 |
| C76U C85A A106C | ≤ -4.2 |
| C76U C85U C132U G133C | ≤ -4.2 |
| C76U C85U G92U U102G A138U G143C | ≤ -4.2 |
| C76U C87G | -3.96 |
| C76U C87U C118G C129G | ≤ -4.2 |
| C76U C95A C96U U151G | ≤ -4.2 |
| C76U C99A | -1.37 |
| C76U C108G G141U U144G | ≤ -4.2 |
| C76U G81A | 0.573 |
| C76U G83A C105G | ≤ -4.2 |
| C76U G84A A119U U145G | -2.68 |

| Variant | polymerase ribozyme fitness (log ratio) |
| --- | --- |
| C76U G84A C118U U134A G140C U151A | ≤ -4.2 |
| C76U G84U | -0.883 |
| C76U G84U A98U | -1.66 |
| C76U G88U A91C C93U G140C | ≤ -4.2 |
| C76U U77A U78G U90G G94A C96A A97U | ≤ -4.2 |
| C76U U78G | ≤ -4.2 |
| C76U U82C A89G | -1.3 |
| U77A A91U G141A U151G | ≤ -4.2 |
| U77A C85U A91G G133C A142G | ≤ -4.2 |
| U77A C87U A98C C103A C125U U135G | ≤ -4.2 |
| U77A G84A A107C | ≤ -4.2 |
| U77C C87U A107G A110U G141C C149A | ≤ -4.2 |
| U77C C93U C105G | ≤ -4.2 |
| U77C C96A | -2.82 |
| U77C G84U A106C | ≤ -4.2 |
| U77G C87A G136A G140U | ≤ -4.2 |
| U77G C87G | ≤ -4.2 |
| U77G C93A | ≤ -4.2 |
| U77G C93A C149A | ≤ -4.2 |
| U77G G81A A97G C99G U101C G141U A142G | ≤ -4.2 |
| U77G G84U | ≤ -4.2 |
| U77G G86U C93G C96A C118G U145G | ≤ -4.2 |
| U77G G86U U102C G140C | ≤ -4.2 |
| U77G G94A U148C | ≤ -4.2 |

| Variant | polymerase ribozyme fitness (log ratio) |
| --- | --- |
| U77G G117U | ≤ -4.2 |
| U78A A89C C93G C116U | ≤ -4.2 |
| U78A G83A U134A U151G | ≤ -4.2 |
| U78A G83C G94U G117U G124U | ≤ -4.2 |
| U78A G83U A91U G94C U135G G136C | ≤ -4.2 |
| U78C C85U C103A G141U G152U | ≤ -4.2 |
| U78C C93U C99A A115C | -4.13 |
| U78C C95U C108U C116U | ≤ -4.2 |
| U78C G83U G86A A121C | ≤ -4.2 |
| U78G C85A G88U U90G | ≤ -4.2 |
| U78G C85G U109C G140U | ≤ -4.2 |
| U78G C87G | ≤ -4.2 |
| U78G C95U U139A | ≤ -4.2 |
| U78G U82A C108G C125U U135C U151A | ≤ -4.2 |
| C79A A97G A113G A119G A150C | ≤ -4.2 |
| C79A A106G U146G | ≤ -4.2 |
| C79A C87A A98U U101G | ≤ -4.2 |
| C79A C93A C95U | ≤ -4.2 |
| C79A C108U | -4.06 |
| C79A C116A | -3.87 |
| C79A G83U | ≤ -4.2 |
| C79A G83U G94C A120G | ≤ -4.2 |
| C79A G86A | ≤ -4.2 |
| C79A G86C C87U G100U A106C | ≤ -4.2 |

| Variant | polymerase ribozyme fitness (log ratio) |
| --- | --- |
| C79A G88A | ≤ -4.2 |
| C79A G143U | ≤ -4.2 |
| C79A U82A C85A G126A | ≤ -4.2 |
| C79A U90G C95G C116A A119C G141U | ≤ -4.2 |
| C79A U101G | ≤ -4.2 |
| C79A U148A | ≤ -4.2 |
| C79G A89U G141C | ≤ -4.2 |
| C79G A91U A142C U148C | ≤ -4.2 |
| C79G A98G G100C G124A | -2.18 |
| C79G A107C | ≤ -4.2 |
| C79G C95U | -3.03 |
| C79G C96U C105U U134A | ≤ -4.2 |
| C79G G83C C93U C123U G126A | ≤ -4.2 |
| C79G G84A G100A A110C | ≤ -4.2 |
| C79G G88C G92A C125G | ≤ -4.2 |
| C79G G88U U134C A142U | ≤ -4.2 |
| C79G U82G G92U C95G A113C A121U A137C | ≤ -4.2 |
| C79U A89U C96G U102G A107C G143C U144A | ≤ -4.2 |
| C79U A121U | -1.2 |
| C79U A150C | ≤ -4.2 |
| C79U C85G U148A | ≤ -4.2 |
| C79U C85U A115C | ≤ -4.2 |
| C79U C85U A122C G140C | ≤ -4.2 |
| C79U C87G | -3.61 |

| Variant | polymerase ribozyme fitness (log ratio) |
| --- | --- |
| C79U C93A | -3.77 |
| C79U C93U | -3.03 |
| C79U C93U C105G U146C | ≤ -4.2 |
| C79U C93U G140U | ≤ -4.2 |
| C79U G88C C93A G136U G143C | ≤ -4.2 |
| C79U G94C A119C | ≤ -4.2 |
| G80A A89C U151C | ≤ -4.2 |
| G80A A91C U130G G141U A142G | ≤ -4.2 |
| G80A A150G | -1.8 |
| G80A C85U G136A G143C | -1.57 |
| G80A C93U | -1.6 |
| G80A G81C C95G U145G | -1.72 |
| G80A G86A A89U C93A A107G A122G | ≤ -4.2 |
| G80A G128U | -3.18 |
| G80A U111G C132U | ≤ -4.2 |
| G80C A91U A137G | ≤ -4.2 |
| G80C C87A A150C | ≤ -4.2 |
| G80C C95U C118G | ≤ -4.2 |
| G80C C96U | -3.79 |
| G80C G83A A110U | ≤ -4.2 |
| G80C G86C G100C C103G | ≤ -4.2 |
| G80C G92U C96U U135G A150G | ≤ -4.2 |
| G80C U145C | ≤ -4.2 |
| G80U A138C | ≤ -4.2 |

| Variant | polymerase ribozyme fitness (log ratio) |
| --- | --- |
| G80U C105U G136U | -1.49 |
| G80U U148C | -3.38 |
| G81A A89U G112A G133U C149U | ≤ -4.2 |
| G81A A97U | -0.297 |
| G81A C85A G136A | 0.0509 |
| G81A C118A | -1.82 |
| G81A C118A U148C | -2.6 |
| G81A G83C G88A A115U | ≤ -4.2 |
| G81A G94C A106C A113U C116A G133A | ≤ -4.2 |
| G81C C85U A107C G126A | -4.16 |
| G81C C87A A138C | ≤ -4.2 |
| G81C G86A | -1.83 |
| G81C G92A U151A | ≤ -4.2 |
| G81C G94U C118G G126A U146G A150G | ≤ -4.2 |
| G81C U139C | ≤ -4.2 |
| G81U G141A | 0.321 |
| U82A A91U | ≤ -4.2 |
| U82A C87A | ≤ -4.2 |
| U82A C93G U127A | ≤ -4.2 |
| U82A G92U | -0.55 |
| U82A U90G | ≤ -4.2 |
| U82A U127C G152U | -3.97 |
| U82C C95U C131G A142C | ≤ -4.2 |
| U82C C118U C129U G140A U148A | ≤ -4.2 |

| Variant | polymerase ribozyme fitness (log ratio) |
| --- | --- |
| U82C G83A C103U | -0.585 |
| U82C G92U A110G U135G | ≤ -4.2 |
| U82C G94U A98G A107C | ≤ -4.2 |
| U82G A91G A107G U109G | ≤ -4.2 |
| U82G A113G C125U | -3.28 |
| U82G C85A C95U U146A A150U | -1.37 |
| U82G C85U A107U | -3.59 |
| U82G C85U C93G C125U | ≤ -4.2 |
| U82G C87U U146C | -0.959 |
| U82G C99G | -0.787 |
| U82G C118G | -1.09 |
| U82G G84U C85U A107C | ≤ -4.2 |
| U82G G92A | -2.96 |
| U82G G92A C108G A142C | ≤ -4.2 |
| U82G G92U A106U C108G U127C A138G U146G | ≤ -4.2 |
| U82G G94U | -0.833 |
| U82G G128U | -3.35 |
| G83A A120G U139A | ≤ -4.2 |
| G83A C85U A115U C116U | -2.68 |
| G83A C87U C123G A142G | -2.09 |
| G83A C95U G141C U151C | ≤ -4.2 |
| G83A C99A C105U U135A U144G | ≤ -4.2 |
| G83A C99U | -2.05 |
